Reference: the supplement of paper PMC11383711
Some of the results follow. Binding of human antibodies (heavy:light variable regions, tested as scFv in one mRNA-display pool) to influenza hemagglutinin, with or without the stem antibody CR9114 bound first. Score = (mean enrichment − median) / interquartile range of that screen; higher = more enriched, 0 = typical non-binder. Active = above the paper's cut-off per screen: stems 28; unblocked H1 Solomon Islands 5, H1 Michigan 3, H3 5, H5 19, H7 2.85, both B 5; blocked 9, 7, H5 10, H7 10, B Phuket 10, B Lee 11.5. Scores are scaled within each screen and are no affinities; replicates correlate at about 0.6 to 0.9, and antibodies rare in the pool are noisier.

What was measured:
Experiment in all cases: mRNA display binding score; higher = more enriched on the antigen
[1] = target: Influenza A H1N1 A/Michigan/45/2015 hemagglutinin ectodomain
Description: (§1)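 A pool of natively paired antibodies, displayed as scFv on mRNA, was selected once on antigen-coated beads and sequenced before and after; two replicates.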

[2] = target: Influenza A H1N1 A/Solomon Islands/3/2006 hemagglutinin ectodomain
Description: as §1

[3] = target: Influenza A H3N2 A/Singapore/INFIMH-16-0019/2016 hemagglutinin ectodomain; conditions: antigen blocked with: nothing
Description: as §1

[4] = target: Influenza A H5N1 A/Qinghai/1A/2005 hemagglutinin ectodomain
Description: as §1

[5] = target: Influenza A H7N9 A/Shanghai/2/2013 hemagglutinin ectodomain
Description: as §1

[6] = target: Influenza B/Lee/1940 hemagglutinin ectodomain
Description: as §1

[7] = target: Influenza B/Phuket/3073/2013 hemagglutinin ectodomain
Description: as §1

[8] = antigen blocked with: 2 µM CR9114 IgG

| Binder | mRNA display binding score [1, 8] | mRNA display binding score ([1]; antigen blocked with: nothing) | mRNA display binding score [2, 8] | mRNA display binding score ([2]; antigen blocked with: nothing) | mRNA display binding score [3] | mRNA display binding score [4, 8] | mRNA display binding score ([4]; antigen blocked with: nothing) | mRNA display binding score [5, 8] | mRNA display binding score ([5]; antigen blocked with: nothing) | mRNA display binding score [6, 8] | mRNA display binding score ([6]; antigen blocked with: nothing) | mRNA display binding score [7, 8] | mRNA display binding score ([7]; antigen blocked with: nothing) |
| --- | --- | --- | --- | --- | --- | --- | --- | --- | --- | --- | --- | --- | --- |
| 16.p.01 (protein) chain 1: QVQLVQSGAEVKRPGASVNVSCKTSGYTFTDYYMHWVRQAPGQGLEWMGWINPNNGGTNYAQRFQGRVTMTRDTSLSTVYMELTSLRSDDTAVYYCATYYFESSGYFRLDYWGRGTLVTVSS chain 2: DIQMTQSPSSLSASVGTRVPITSRASKSIARFLNRNQQKPGRAPKFMIYYASIWERGGPSRFSGGGSGTDFNFTISVLQPEDFATYYCQQSNSAPTTSGQGNKIEIK | inactive: -0.362 | inactive: 1.21 | inactive: 0.961 | inactive: -0.0914 | inactive: 0.217 | inactive: 1.13 | inactive: 0.4 | inactive: 0.588 | inactive: 1.26 | inactive: 0.912 | inactive: 0.0494 | inactive: 0.541 | inactive: 0.0329 |
| W85-2D08 (protein) chain 1: QVQLVQSGAEVKKPGASVKVSCKASGYSFTTFDINWVRQATGQGLEWVGWMNPNSGNTGYAQKFQGRVSMTRNTSKSTAYMELSSLTSEDTAVYFCARGVGFCDTTSCYGSWFDPWGQGTLVTVSS chain 2: EIVMTQSPATLSVSPGERATLSCWASQNVSSNLAWYQQKPGQAPRLLIYGATTRATGVPARFSGSGSRTEFTLTISSLQFEDFAVYYCQPYSNWRPITFGQGTRLEIK | inactive: 0.187 | inactive: -0.539 | inactive: 0.292 | inactive: -0.254 | inactive: 1.32 | inactive: -0.143 | inactive: -0.461 | inactive: -0.157 | inactive: -0.4 | inactive: -0.561 | inactive: 0.0351 | inactive: -0.59 | inactive: -0.276 |
| 240-14-IgG-2E03 (protein) chain 1: QVQLQEWGAGLLKPSETLSLTCAVSGDSFSDYYWSWIRQPPGKGLEWIGEVYHDGSTNYNPSLKSRVTISIDTSKNQFSLKLTSVTAADTAVYFCARGVLGELTAIHFDYWGQGALVTVSS chain 2: EIVMTQSPATLSVSPGERATLSCRASQSVSSLLVWYQQKPGQTPRLLIYGASTRAPGIPARFSGSGSGTEFTLTISSLQSEDFAVYYCQQWYTFGQGTKVEIK | inactive: 1.21 | inactive: 1.31 | inactive: 1.22 | inactive: 1.72 | inactive: 1.05 | inactive: 0.233 | inactive: 0.225 | inactive: 0.383 | inactive: 1.62 | inactive: -0.238 | inactive: -0.154 | inactive: 1.25 | inactive: 0.059 |
| C1-2-E05 (protein) chain 1: VQLVESGGGLVQPGGSLRLSCAASGFSFSLYSMNWVRQAPGKRLEWISYISSSSGTKLYADSVKGRLTTSRDNAKSSLYLQMTNLRPEDTAVYYCVREEVIVGGIPFDYWGQGALVTVSS chain 2: EIVMTQSPSTLSVSPGARATLSCRASQSVGSSLAWYQQKPGQPPRLLIFGASTRATGVPARFSGSGYGTEFTLTISSLQSEDSAVYHCHQYHDWPPWTFGQGTKVEIK | inactive: -0.094 | inactive: -0.0579 | inactive: -0.256 | inactive: -0.0642 | inactive: 0.186 | inactive: -0.325 | inactive: -0.18 | inactive: 0.0079 | inactive: 0.0873 | inactive: -0.0653 | inactive: -0.192 | inactive: -0.0448 | inactive: -0.258 |
| AG6-3E02 (protein) chain 1: QLQESGPRLVRPSETLSLTCTVSGGSISSSTYYWGWIRQPPGKGLEWIGSVFYSGTTYKIPSLNSRVTISIDTSKKEFSLTLTSVTAADTAVYYCARHTYNRGSWFDHPWNYFYGMDIWGQGTTVTVSS chain 2: DIQMTQSPSSLSASVGDRVTITCRASHNINNYLNWYQQKPGKPPKLLIYAASSLRSGVPSRFSGSGSETDFTLTISTLEPEDFVTYYCQQSFSTPFTFGQGTKVEIK | inactive: -0.399 | inactive: -0.524 | active: 11 | active: 7.99 | inactive: 0.0617 | inactive: -0.623 | inactive: -0.293 | inactive: -0.881 | inactive: -0.632 | inactive: -0.259 | inactive: -0.333 | inactive: -0.365 | inactive: -0.247 |
| K77-2E05 (protein) chain 1: QVQLVQSGAEVKRPGASVKVSCKASGYTFTSHYVTWVRQAPGQGLEWMGPIIPSAGSISYAQKFQGRVVMTRDTSTSTVYMELSSLRSEDTAVYYCARVGVQVERELRYYGMDVWGQGTTVTVSS chain 2: EIVLTQSPGTLSLSPGERATLSCRASQSVSSSYLAWYQQKPGQAPRLLIYGASSRATGVPDRFSGSGSGTDFILTISRLEPEDFAVYYCQQYGFSGTTFGQGTRLEI | inactive: 0.18 | inactive: -0.0365 | inactive: -0.441 | inactive: -0.21 | inactive: -0.532 | inactive: -0.303 | inactive: -0.342 | inactive: 0.848 | inactive: 0.202 | inactive: 0.0854 | inactive: -0.289 | inactive: -0.24 | inactive: -0.0506 |
| C6-C01 (protein) chain 1: VQLVESGGGVVQPGKSLRLSCTASGFTFSSYAMHWVRQAPGKGLEWVAVVAYDGSNRYYVDSVKGRFTISRDNSKNTLYLQMNNIRPEDTAVYYCARVASMILVDIKYYFDYWGQGTLVTVSS chain 2: EIVMTQSPATLSVSPGERATLSCRASQSVRSNLAWYQQKPGQAPRLLIYGASTRATGIPARFSGSGSGTEFTLTISSLQSDDFAVYHCQQYNEWPRTFGQGTKVEIK | inactive: 0.339 | inactive: 1.43 | inactive: 0.123 | inactive: 0.408 | inactive: -0.227 | inactive: 0.415 | inactive: 0.441 | inactive: -0.0578 | inactive: 1.82 | inactive: -1.39 | inactive: 0.316 | inactive: 0.0282 | inactive: 0.218 |
| C1-2E01 (protein) chain 1: VQLVESGGGGVRPGRSLRLSCAASGFNFEHYGMIWVRQVPGKGLEWVSAITWNGGDTYYVDSVRGRFTISRDNAKRSLFLQMNSLRVEDTAFYYCAREMRDPYDAFDLWGQGTMVTVSS chain 2: DIQMTQSPSSLSASVGDRVTITCRASHNIGSYLNWYQQKPGKAPQLLIYASSILQTGVPSRFSGSGSGTDYTLTISGLQRDDFATYFCQQSSTNPKTFGQGTRLEIK | inactive: -0.096 | inactive: 0.147 | inactive: 0.296 | inactive: -0.368 | inactive: -0.16 | inactive: 0.067 | inactive: 0.762 | inactive: 0.347 | inactive: 0.0188 | inactive: 0.0371 | inactive: -0.105 | inactive: 8.08 | active: 7.18 |
| 16.ND.92 (protein) chain 1: EVQLVESGGGLVQPGGSLRLSCEASGFTLSSYWMHWVRQDPGKGLVWVAVINSDGSSTDYADFVKGRFTISRDNAKNTVYLQMNSLRAEDTAVYYCARAPQGTVFGVVIIGADGFDIWGQGTMVTVSS chain 2: DIQMTHIPVSLSASVGDRVTITCRASQSISSWLAWYQQKPGKAPKLLIYKASTLESGVPSRFSGSGSGTDFTLTINSLQPDDFATYYCQHYNTYSRAWTFGQGTKVEVK | inactive: -0.415 | inactive: -0.0357 | inactive: -0.122 | inactive: 3.26 | inactive: -0.0241 | inactive: -0.309 | inactive: 0.402 | inactive: -0.666 | inactive: -0.477 | inactive: -0.143 | inactive: -0.324 | inactive: -0.285 | inactive: -0.397 |
| K77-1D04 (protein) chain 1: EVQLVESGGGVVQPGGSLRLSCGASGFTFSDYGMHWVRQAPGKGLEWVTYIRYDGSNEFYADSVKGRFTVSRDNSKNTLYLEMHSLRPEDTAVYFCANSALGYCSGENCPKFDFWGQGTLVTVSS chain 2: QSALTQPASVSGSPGQSITISCTGTSFDVGGYNYVSWYQQHPGKAPKLIIYDVSERPSGISNRFSASKSGITASLTISGLQAEDEADYYCSSYTSSGTHWLFGGGTKLTVL | inactive: -0.48 | inactive: -0.798 | inactive: -0.511 | inactive: -0.485 | inactive: -0.508 | inactive: -0.521 | inactive: -0.597 | inactive: 0.495 | inactive: -0.787 | inactive: -0.179 | inactive: -0.213 | inactive: 9.1 | inactive: 1.93 |
| 029-09-3A02 (protein) chain 1: VQLVQSGAEVKKPGASVKVSCKASGYIFTGYYMEWVRQAPGQGLEWMGWINPNTGVTKYAQKFQGRVTMTRDTSLSTAYMELINLRSDDTAIYYCAKDRAWLVYDDGSDVWGQGTMVTVSS chain 2: SYELTQPPSVSVSPGQTAIITCSGDILGDTYACWYQQKPGQSPVLVIYHDFKRPSGIPERFSGSNSGKTATLTITGTQAMDEADYFCQTWDGGALFGGGTKLTVL | active: 38.9 | inactive: 1.21 | inactive: 0.412 | inactive: -0.157 | inactive: -0.065 | inactive: -0.184 | inactive: -0.0548 | inactive: -0.555 | inactive: -0.245 | inactive: -0.516 | inactive: -0.00408 | inactive: -0.333 | inactive: -0.348 |
| W85-1C11 (protein) chain 1: EVQLVESGGGLVQPGGSLRLSCAASGFILSPYWMHWVRQAPGKGLVWVSRINSDGSNRNYADSVKGRFTISRDNAKNTLYLQMNSLRVEDTAVYYCARQGYYYDSSGYQDWFDPWGQGTLVTVSS chain 2: SYELTQPPSVSVSPGQTARITCSGDALPKKYAYWYQQKSGQAPVLVIYEDTKRPSGIPQRFSGSSSGTMATLTISGAQVEDEADYYCYSTDSSGNHRVFVGGT | inactive: -0.526 | inactive: -0.513 | inactive: -0.368 | inactive: -0.32 | inactive: -0.481 | inactive: -0.915 | inactive: -0.567 | inactive: 0.279 | inactive: -0.418 | inactive: 0.344 | inactive: -0.107 | inactive: -0.605 | inactive: -0.123 |
